T1: Human BCMA-Fc (human, UniProt Q02223 1-54)
T1 construct: also called human BCMA-Fc protein; recombinant BCMA-Fc fusion protein; not shown: Fc part (captured by anti-human Fc antibody or Protein A)
T1 sequence (looked up): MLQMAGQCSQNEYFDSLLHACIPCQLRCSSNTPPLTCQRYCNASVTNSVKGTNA

T2: B Cell Maturation Antigen (BCMA) on cells (UniProt Q02223 1-184, limits assumed)
T2 construct: whole, on cells; One molecule is used for the recombinant (CHOK1) and the endogenous (myeloma lines) cell-surface BCMA; also called tumor necrosis factor receptor superfamily member 17 (TNFRSF17); CD269
T2 sequence (looked up): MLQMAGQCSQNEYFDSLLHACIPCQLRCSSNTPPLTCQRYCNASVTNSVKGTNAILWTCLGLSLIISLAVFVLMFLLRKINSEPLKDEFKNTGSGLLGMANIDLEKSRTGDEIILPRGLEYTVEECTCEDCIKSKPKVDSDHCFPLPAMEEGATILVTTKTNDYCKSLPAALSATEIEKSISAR

T3: Transmembrane activator and CAML interactor (TACI) on cells (UniProt O14836 1-293, limits assumed)
T3 construct: whole, on cells; also called tumor necrosis factor receptor superfamily member 13B (TNFRSF13B)
T3 sequence (looked up): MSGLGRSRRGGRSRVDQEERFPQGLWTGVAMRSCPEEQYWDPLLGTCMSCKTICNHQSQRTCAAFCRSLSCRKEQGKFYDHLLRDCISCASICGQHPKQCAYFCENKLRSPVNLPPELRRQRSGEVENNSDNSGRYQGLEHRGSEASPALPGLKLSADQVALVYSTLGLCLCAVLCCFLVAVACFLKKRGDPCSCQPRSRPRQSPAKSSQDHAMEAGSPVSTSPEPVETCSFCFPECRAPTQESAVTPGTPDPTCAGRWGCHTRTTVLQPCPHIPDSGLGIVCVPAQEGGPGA

B1: BC-04 (anti-BCMA antibody in scFv format) (scFv)
scFv: EVQLVESGGGLVQPGRSLRLSCTASGFTFGDYAMSWFRQAPGKGLEWVGFIRSKAYGGTTEYAASVKGRFTISRDDSKSIAYLQMNSLKTEDTAVYYCTPGPHYDILTSNWFDPWGQGTLVTVSSGGGGSGGGGSGGGGSDIVMTHSPSSLSASVGDRVTIT[about 80 residues omitted here]FGQGTKVEIK
notes: Human scFv from mRNA display, VH-(G4S)3-VL, expressed in E. coli periplasm, His-purified; not shown: C-terminal flag and 6xHis tag
B2: TC-01 (anti-TACI antibody in scFv format) (scFv, not shown: small tags and cut ends)
scFv: [about 100 residues omitted here]DDGTGYNAFDIWGQGTMVTVSSGGGGSGGGGSGGGGSDIVMTQSPLSLPVTPGEPASISCRSSQSLLHSNGYNYLDWYVQKPGKPPQLLIYLASHRASGVPDRFSGSGSGTDFTLKISRVEAEDVGIYYCMQAQQTALFGPGTKVDIK
notes: Human scFv from mRNA display (live cell selections), VH-(G4S)3-VL

Columns and labels:
Human BCMA-Fc [1] = target: T1, Human BCMA-Fc; experiment: ELISA, human BCMA-Fc captured by anti-human Fc, scFv detected with anti-Flag HRP
Protocol: An ELISA assay was developed to determine the EC₅₀ of anti-BCMA antibodies. Briefly, 384 well plate was immobilized with anti-human Fc antibody at final concentration of 2 μg/mL in 1×PBS in total volume of 25 uL per well. The plate was incubated overnight at 4° C. followed by blocking with 80 μL of superblock per well for 1 hour. Human BCMA-Fc was captured through immobilized anti-hFc antibody. Purified anti-BCMA scFvs were 2-fold serial titrated from 200 nM. 25 μL of diluted scFv was added to human BCMA immobilized wells and incubated for 1 hour with shaking. The BCMA binding was detected by adding 25 μL of anti-Flag HRP diluted at 1:5000 in 1×PBST. In between each step, the plate was washed 3 times with 1×PBST in a plate washer. The plate was then developed with 20 μL of TMB substrate for 5 mins and stopped by adding 20 μL of 2 N sulfuric acid. The plate was read at OD450 nm Biotek plate reader and then plotted in Prism 8.1 software.

Human BCMA-Fc [2] = target: T1, Human BCMA-Fc; experiment: SPR, Biacore T200, BCMA-Fc captured on Protein A chip, scFv as analyte
Protocol: Kinetic analysis of anti-BCMA scFvs have been assessed by SPR technology with Biacore T200. The assay was run with Biacore T200 control software version 2.0. Protein A sensor chip was used to capture Fc fusion protein in the assay. For each cycle, 1 μg/mL of human BCMA-Fc protein was captured for 60 seconds at flow rate of 10 ul/min on flow cell 2 in 1×HBSP buffer on Protein A sensor chip. 2-fold serial diluted HIS tag purified anti-BCMA scFv was injected onto both reference flow cell 1 and BCMA-Fc captured flow cell 2 for 150 seconds at flow rate of 30 ul/min followed by wash for 300 seconds. The flow cells were then regenerated with Glycine pH2 buffer (GE) for 30 seconds at flow rate of 30 ul/mins. 8 concentration points from 300-0 nM was assayed per anti-BCMA scFv in a 96 well plate. The kinetics of scFvs binding to BCMA protein was analyzed with Biacore T200 evaluation software version 3.0. The specific binding response unit was derived from subtraction of binding to reference flow cell 1 from BCMA captured flow cell 2.

[3] = target: T2, B Cell Maturation Antigen (BCMA) on …; experiment: flow cytometry, serial diluted scFv on BCMA/CHOK1 cells
Protocol: (§1) Cells were spun down at 1200 rpm for 6 minutes at 4° C. to remove primary antibodies. Cells were then washed once with 200 μL of full medium per well. Samples were detected with premixed anti-His Biotin Streptavidin Alexa fluor 647 by adding 100 μL of diluted secondary antibody and incubated at 4° C. for 30 minutes in the dark. Samples were spun down at 1200 rpm for 5 minutes at 4° C. and washed twice with 200 μL of 1×PBS per well. Reconstituted samples in 200 μL of 1×PBS and read on Attune NxT cytometer. Analysis was done by Attune NxT software plotting the overlaying the histogram of anti-BCMA scFvs binding onto both negative and target cell lines. […] The BCMA cell binding affinity for exemplary anti-BCMA antibodies (in scFv format) was also generated with serial diluted scFvs as described above.

[4] = target: T3, Transmembrane activator and CAML …; experiment: flow cytometry on MM1R cells (endogenous TACI)
Protocol: as §1
(§2) Anti-TACI scFv binders have been identified through Anti-TACI supernatant FACS screening assay with JVM2, MM1.R and RPMI8226 cell lines as described in above supernatant FACS screening assay. 200 nM of purified scFvs were subjected into FACS binding assay with TACI negative cell lines K562, H929 and TACI expressing cancer cell lines of JVM2, MM1.R, RPMI8226. The assay procedure and data analysis were described in Example 1 above.

[5] = target: T3, Transmembrane activator and CAML …; experiment: flow cytometry on RPMI8226 cells (endogenous TACI)
Protocol: as §1, §2

[6] = target: T3, Transmembrane activator and CAML …; experiment: flow cytometry on MM1S cells (endogenous TACI)
[7] = target: T3, Transmembrane activator and CAML …; experiment: flow cytometry on JVM2 cells (endogenous TACI)
Protocol: as §1, §2

Binder	EC50 (Human BCMA-Fc [1])	Kd (Human BCMA-Fc [2])	koff (Human BCMA-Fc [2])	kon (Human BCMA-Fc [2])	EC50 [3]	EC50 [4]	EC50 [5]	EC50 [6]	EC50 [7]
B1	1.96 nM	7.68 nM	0.000874 s⁻¹	114000 M⁻¹ s⁻¹	69.7 nM	–	–	–	–
B2	–	–	–	–	–	8.67 nM	1.07 nM	13.4 nM	4.3 nM

Source: patent US20260097076A1 (ELPIS BIOPHARMACEUTICALS, published 2026)
